Data published in PubChem BioAssay AID488969 (Vanderbilt High Throughput Screening Facility, 2010).
The full ranking holds about 110,000 compounds; the median of “z-score” is about -0.1, and the highest 2% start at about 2. The list shows a part of the results. Calls of active or inactive are those of the source.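 Rule for the calls: active = z-score in the third read window above 3 or below -3; inactive = the rest.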

target: Metabotropic glutamate receptor 8 (Rattus norvegicus) (UniProt P70579); assay: rat mGluR8 modulators via GIRK flux, primary screen, cell-based, thallium flux, HTS (AID 488969); conditions: HEK293 rat mGluR8, GIRK (G protein-gated inwardly rectifying potassium channel) thallium flux, FluoZin2; at 10 µM; stronger effect = higher value; submaximal glutamate (EC20) added with thallium
Chain of UniProt P70579 (P70579 whole entry, looked up): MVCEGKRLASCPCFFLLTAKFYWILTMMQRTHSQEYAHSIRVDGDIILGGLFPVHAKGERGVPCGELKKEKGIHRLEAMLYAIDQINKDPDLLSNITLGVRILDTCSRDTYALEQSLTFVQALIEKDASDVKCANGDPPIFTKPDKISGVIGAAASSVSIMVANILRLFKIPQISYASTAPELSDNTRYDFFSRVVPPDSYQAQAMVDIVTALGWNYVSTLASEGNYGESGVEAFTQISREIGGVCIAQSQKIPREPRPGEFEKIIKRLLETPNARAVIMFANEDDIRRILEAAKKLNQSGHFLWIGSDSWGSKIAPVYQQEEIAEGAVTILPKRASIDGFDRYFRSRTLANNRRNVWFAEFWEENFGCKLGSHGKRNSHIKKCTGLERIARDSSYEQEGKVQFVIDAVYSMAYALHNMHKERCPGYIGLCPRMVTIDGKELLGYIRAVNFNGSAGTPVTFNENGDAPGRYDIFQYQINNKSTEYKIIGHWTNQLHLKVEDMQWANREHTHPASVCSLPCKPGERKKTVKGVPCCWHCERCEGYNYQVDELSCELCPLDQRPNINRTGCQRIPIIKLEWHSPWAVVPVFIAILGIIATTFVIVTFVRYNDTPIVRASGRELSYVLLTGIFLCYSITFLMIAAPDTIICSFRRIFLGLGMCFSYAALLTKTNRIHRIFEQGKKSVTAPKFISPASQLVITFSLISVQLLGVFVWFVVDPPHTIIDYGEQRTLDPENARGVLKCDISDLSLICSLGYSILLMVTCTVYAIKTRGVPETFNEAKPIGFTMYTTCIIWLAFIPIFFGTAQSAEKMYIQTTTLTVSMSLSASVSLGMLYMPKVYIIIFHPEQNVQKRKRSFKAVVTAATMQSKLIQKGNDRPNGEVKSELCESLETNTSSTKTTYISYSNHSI

Compared with Cc1cc(C(=O)CSc2nnc(N)s2)c(C)n1CCc1ccc(F)cc1, COC(=O)c1sc2nc(SCc3cccc(F)c3)n(N)c(=O)c2c1C is lower in z-score: 0.907 for the first, -0.146 for the second.

First: O=C(Nc1ccc(Cl)cc1C(F)(F)F)c1ccc(Cl)cc1
Second: COCCCN1C(=O)c2ccc(C(=O)Nc3cccc(OC)c3)cc2C1=O
The z-score of the first is lower: -0.364 for the first, 0.0614 for the second.

First: Cc1ccc(-c2nc(CS(=O)CC(=O)N3CCN(c4ncccn4)CC3)c(C)o2)cc1 (stereo unspecified)
Second: O=C(c1sc2ccccc2c1Cl)N1CCN(c2ccc(F)cc2)CC1
The z-score of the first is higher: -0.123 for the first, -0.238 for the second.

Going from CC(=O)c1cn(CC(=O)NCC2CCCO2)c2ccccc12 (stereo unspecified) to C=CCn1c2ccccc2c2nnc(SCC(=O)NC(C(=O)OC)C(C)C)nc21 (stereo unspecified), the z-score falls from -0.101 to -0.138.

First: CCOC(=O)c1c(C)n(C)c2ccc(OC(C)=O)cc12
Second: COC(=O)Cc1cc(=O)oc2cc(OC)ccc12
The z-score of the first is lower: -0.514 for the first, 0.038 for the second.

First: CCOCCCNS(=O)(=O)c1ccc(-n2cnnn2)c(OC)c1
Second: CCN(CC)C1CCCCC1NS(=O)(=O)c1ccc(Cl)cc1 (stereo unspecified)
The z-score of the first is lower: -0.52 for the first, -0.494 for the second.

Compared with CCOc1ccc(-c2c(=O)n(OCc3ccccn3)c3ccccc3[n+]2[O-])cc1, COc1ccc(C(=O)Nn2c(SCC(=O)c3ccccc3)nc3ccccc3c2=O)cc1 is higher in z-score: 0.0236 for the first, 0.0458 for the second.

Going from COCCn1c(=O)c2c3c(sc2n(CC(N)=O)c1=O)CCCC3 to N#Cc1c(NC(=O)COC(=O)c2ccc(F)cc2)sc2c1CCC2, the z-score falls from -0.12 to -0.787.

Going from CCN(CC)C(=O)CSc1nc2ccc(NC(=O)CSc3nnc(COc4ccccc4C)n3C)cc2s1 to COc1ccccc1CC(=O)Nc1cccc(C(=O)NN2C(=O)c3ccccc3C2=O)c1, the z-score rises from -0.166 to -0.129.

First: C/C(=N/N1CCN(c2ccccn2)CC1)c1ccc([N+](=O)[O-])cc1
Second: COc1ccc(-n2nc([N+](=O)[O-])c(=NCCc3ccccc3)n2O)cc1
The z-score of the first is lower: -0.472 for the first, -0.0204 for the second.

First: COc1ccc(-n2c(C)cc(C(=O)Cn3nc(C(=O)O)c4ccccc4c3=O)c2C)cc1
Second: COc1ccc(CNC(=O)Cc2c(C(=O)O)[nH]c3ccccc23)cc1
The z-score of the first is lower: -0.162 for the first, -0.136 for the second.

Compared with CCCCCSc1nc2c(cnn2-c2ccccc2)c(=O)[nH]1, CCCc1nc(N2CCOCC2)c2sc(=S)n(-c3ccccc3)c2n1 is higher in z-score: -1.02 for the first, -0.0824 for the second.

Compared with COc1ccc(C2=Nc3cccc4cccc(c34)N2)cc1, COc1ccc(-c2noc(Cc3cccs3)n2)cc1 is higher in z-score: -0.172 for the first, 0.196 for the second.

Going from CC(NC(=O)C1CC2CCCC(C1)C2=O)c1ccccc1 (stereo unspecified) to O=C(NN1C(=O)c2ccccc2C1=O)C1CC2CCC1C2 (stereo unspecified), the z-score falls from 0.432 to -0.259.

First: Cc1nn(C2CCCCC2)c(N)c1-c1ccccc1
Second: Cc1nc2ncnn2c(N2CCC(C(=O)NC3CCCC3)CC2)c1Cc1ccccc1
The z-score of the first is higher: 0.796 for the first, -0.964 for the second.

Going from CC(=O)N1C(=O)N(C)C2C1N(C)C(=O)N2C(C)=O (stereo unspecified) to CC(C(=O)Nc1ccccn1)N1C(=O)C2C3C=CC(C3)C2C1=O (stereo unspecified), the z-score rises from -0.27 to 0.225.

Compared with O=C(Cn1cc([N+](=O)[O-])cn1)Nc1ccn(Cc2c(F)c(F)c(F)c(F)c2F)n1, CCOc1ccc(C(c2c(O)nc(SC)n(C)c2=O)c2c(O)nc(SC)n(C)c2=O)cc1 is higher in z-score: -0.201 for the first, -0.171 for the second.

Compared with O=C(c1ccco1)n1nc(-c2ccccc2)nc1SCc1ccccc1, O=C(Nc1cccc(-c2cn3ccccc3n2)c1)c1cc2ccccc2oc1=O is higher in z-score: -0.293 for the first, 0.101 for the second.

First: CC(=O)N1N=C(c2ccco2)CC1c1ccc(Br)cc1 (stereo unspecified)
Second: Cc1cn(S(=O)(=O)c2ccc(Br)cc2)cn1
The z-score of the first is lower: -0.329 for the first, -0.32 for the second.

Compared with CCOC(=O)N1CCN(C(=O)CSCC(=O)Nc2nc(-c3ccccc3)cs2)CC1, CCCN1Cc2cccc(C(=O)NCc3ccccc3)c2C1=O is lower in z-score: -0.19 for the first, -1.23 for the second.

Going from Cc1cc(C(=O)Nc2ccc(S(=O)(=O)Nc3nccs3)cc2)c(C)o1 to NNC(=O)CCS(=O)(=O)c1ccc2ccccc2c1, the z-score rises from -0.331 to -0.0752.

Going from CCN1C(=O)/C(=C/C=C2\C=CN(CC)c3ccccc32)SC1=S to Cc1ccc(NC(=O)Cn2cccc2C2=NC(c3ccccc3)CO2)c(C)c1 (stereo unspecified), the z-score falls from 0.441 to -0.0278.

Compared with CN=C(C)c1c(O)c2ccccc2oc1=O, CN=C(Nc1ccccc1OC)SC1CC(=O)N(c2ccc(C(=O)OC)cc2)C1=O (stereo unspecified) is higher in z-score: -0.171 for the first, -0.0907 for the second.

First: COc1ccc(-n2nnnc2SCC(=O)c2cc3ccccc3o2)cc1
Second: Cc1cc(SCC(=O)c2ccc3c(c2)OCO3)nc2ccccc12
The z-score of the first is higher: 0.482 for the first, 0.243 for the second.

First: COc1cc2c(cc1OC)C1=C(C#N)CCC(=O)N1CC2
Second: COc1ccc(/C=C2/N=C(c3cccs3)OC2=O)cc1OC(C)C
The z-score of the first is higher: 0.55 for the first, -0.157 for the second.

Compared with COc1cc(/C=N/Nc2nnc3c(n2)[nH]c2ccccc23)ccc1O, N#Cc1nc(-c2ccccc2F)oc1NCc1cccc2c1OCO2 is lower in z-score: -0.014 for the first, -0.589 for the second.

First: CCOC(=O)c1cnc(SC2CC(=O)N(c3ccc(C)cc3)C2=O)nc1N (stereo unspecified)
Second: Cc1ccc(CCNC(=O)CN(C)S(=O)(=O)c2cnc[nH]2)cc1
The z-score of the first is higher: -0.16 for the first, -0.164 for the second.

Going from Cn1c(=O)c2c(nc(CN3CCc4ccccc4C3)n2Cc2ccccc2)n(C)c1=O to O=C1CC(N2CCN(S(=O)(=O)c3ccc(Cl)cc3)CC2)C(=O)N1CCc1ccccc1 (stereo unspecified), the z-score rises from -0.932 to 0.67.

Compared with CC(C)Nc1nc(NC(C)C)nc(N(C)n2cnnc2)n1, CCNc1nc(N2CCOCC2)nc(N(c2ccccc2)c2ccccc2)n1 is higher in z-score: -1.8 for the first, -0.128 for the second.

Going from CSCC[C@H](NC(=O)OC(C)(C)C)c1nnc(SCc2ccccc2)o1 to NC(=O)Nc1ccc2c(c1)OCCO2, the z-score rises from -0.639 to -0.121.

Going from Fc1ccc(OCCCCCCN2CCCC2)cc1 to COc1cccc(OCCCCN2CCCCC2)c1, the z-score rises from 0.0752 to 0.263.

Going from COc1ccc(C2N(C(=O)c3ccccc3)CCN2C(=O)c2ccc(C)cc2)cc1 (stereo unspecified) to N#CC1=C(N)OC2=C(C(=O)CC(c3ccco3)C2)C1c1ccc(OCc2c(F)cccc2Cl)cc1 (stereo unspecified), the z-score falls from 0.0284 to -0.068.

Going from COc1ccc(-n2nc3c(c2NC(=O)C24CC5CC(CC(C5)C2)C4)CS(=O)C3)cc1 (stereo unspecified) to Cc1cc(C(F)(F)F)nc(SCC(=O)NC2CC3CCC2C3)n1 (stereo unspecified), the z-score falls from 0.0567 to -0.389.

Going from OC(CNC1CCCC1)COc1c(F)cc(Br)cc1F (stereo unspecified) to C=CCOc1ccc(/C=N/O)cc1Cl, the z-score rises from 0.142 to 0.276.

For Clc1ss/c(=N\c2ccccn2)c1Cl, the z-score was -0.261.

With N#CC(C#N)=C1C=C2C=C(N3CCCCC3)CCC2CC1 (stereo unspecified) the z-score was active: 10.9.
With CC1(c2ccccc2)CC(C)(C)N2C(=O)/C(=C3\SC(=S)NC3=O)c3cccc1c32 (stereo unspecified) the z-score was active: 5.26.
